Measured values taken from the antibiotic and cytotoxicity screens of Wong et al. (2023).
This is one part of the list.

test system: HSkMC (human skeletal muscle cells); assay: cytotoxicity call (relative viability < 0.9); conditions: 10 µM

| Structure (SMILES) | cytotoxicity call |
| --- | --- |
| COc1ccc([Si](C)(C)[C@H]2[C@H](CCn3cc([C@H](O)c4ccccc4)nn3)O[C@@]3(C(=O)N(Cc4ccc(N5C(=O)c6cccc7cccc5c67)cc4)c4ccccc43)[C@@H]2C)cc1 | inactive |
| O=C(Nc1nccs1)[C@H]1[C@H](CO)[C@H]2Cn3c(cccc3=O)[C@@H]1N2C(=O)C1CC1 | inactive |
| COc1ccc(NC(=O)N(C)C[C@@H]2OCCCC[C@@H](C)Oc3ccc(NC(=O)Nc4ccc(F)cc4)cc3C(=O)N([C@H](C)CO)C[C@H]2C)cc1 | inactive |
| NC1=CC(=O)c2ccccc2C1=O | inactive |
| COc1ccc(S(=O)(=O)N(C)C[C@H]2Oc3c(NS(=O)(=O)c4ccccc4)cccc3C(=O)N([C@H](C)CO)C[C@H]2C)cc1 | inactive |
| OCCN1CCN(c2ncnc3c2ncn3[C@H]2CN(Cc3cccc(C(F)(F)F)c3)C[C@@H](CO)O2)CC1 | inactive |
| CO[C@@H]1CN(C)C(=O)c2cc(NS(=O)(=O)c3ccccc3)ccc2OC[C@H](C)N(C(=O)NC(C)C)C[C@H]1C | inactive |
| C[C@@H]1CN([C@H](C)CO)C(=O)c2cc(NS(=O)(=O)c3ccc(Cl)cc3)ccc2O[C@@H](C)CCCCO[C@H]1CN(C)Cc1ccc2c(c1)OCO2 | inactive |
| C[C@@H]1CN([C@@H](C)CO)C(=O)Cc2cc(NC(=O)Cc3ccccc3)ccc2O[C@@H]1CN(C)Cc1ccc(C(F)(F)F)cc1 | active |
| C[C@@H]1CN([C@H](C)CO)C(=O)Cc2cc(NC(=O)C3CC3)ccc2O[C@H]1CN(C)Cc1ccc(C(=O)O)cc1 | inactive |
